The text below walks through data of paper PMC9984488.

Chains of the proteins cited; added tags and fusions are not shown. Lines headed by an entry give the natural chain unless they say otherwise; changes in a name come on top.
UniProt Q9UJU6: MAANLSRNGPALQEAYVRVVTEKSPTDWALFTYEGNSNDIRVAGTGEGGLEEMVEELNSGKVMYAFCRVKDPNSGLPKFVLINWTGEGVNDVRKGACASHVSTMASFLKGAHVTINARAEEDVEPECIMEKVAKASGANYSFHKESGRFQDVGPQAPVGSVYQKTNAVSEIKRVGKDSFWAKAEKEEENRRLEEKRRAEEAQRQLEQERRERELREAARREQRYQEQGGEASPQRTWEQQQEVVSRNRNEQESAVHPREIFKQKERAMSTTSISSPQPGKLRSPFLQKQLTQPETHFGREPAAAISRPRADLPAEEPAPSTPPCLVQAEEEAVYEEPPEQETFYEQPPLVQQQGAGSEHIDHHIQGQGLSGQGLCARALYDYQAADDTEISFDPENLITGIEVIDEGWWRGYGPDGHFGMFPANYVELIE
UniProt Q92918: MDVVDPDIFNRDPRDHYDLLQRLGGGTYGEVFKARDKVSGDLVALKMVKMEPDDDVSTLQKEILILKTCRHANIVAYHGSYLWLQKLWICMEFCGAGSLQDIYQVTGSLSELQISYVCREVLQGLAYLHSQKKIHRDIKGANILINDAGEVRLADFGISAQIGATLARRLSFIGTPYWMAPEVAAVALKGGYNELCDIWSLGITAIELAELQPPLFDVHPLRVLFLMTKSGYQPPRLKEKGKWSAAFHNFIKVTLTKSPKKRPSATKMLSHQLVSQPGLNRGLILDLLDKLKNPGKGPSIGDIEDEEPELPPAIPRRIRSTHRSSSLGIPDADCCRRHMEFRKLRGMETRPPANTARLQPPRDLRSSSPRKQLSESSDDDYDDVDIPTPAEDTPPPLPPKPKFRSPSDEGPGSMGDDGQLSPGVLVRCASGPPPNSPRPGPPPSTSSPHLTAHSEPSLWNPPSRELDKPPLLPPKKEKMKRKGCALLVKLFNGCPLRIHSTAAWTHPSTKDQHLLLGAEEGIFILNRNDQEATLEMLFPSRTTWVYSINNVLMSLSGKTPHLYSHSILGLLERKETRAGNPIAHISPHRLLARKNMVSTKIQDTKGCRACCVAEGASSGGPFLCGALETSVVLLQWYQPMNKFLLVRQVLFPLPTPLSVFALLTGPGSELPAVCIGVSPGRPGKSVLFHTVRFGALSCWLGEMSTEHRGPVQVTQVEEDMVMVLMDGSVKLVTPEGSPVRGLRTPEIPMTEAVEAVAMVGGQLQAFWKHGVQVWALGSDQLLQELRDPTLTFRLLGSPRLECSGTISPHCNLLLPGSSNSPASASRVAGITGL

These are yes or no findings as the source states them, for the method shown. Binding seen in cells or lysates may run through a third protein. Some entries that bind do so weakly or less than the wild type.

Test [1] concerns the target GST-HIP-55 (human) (UniProt Q9UJU6). Briefly: pull-down; GST pull-down from lysates of transfected HEK293A cells; Glutathione-Sepharose 4B, 4 °C 4 h, three washes with lysis buffer (1% NP-40, 150 mM NaCl, 100 mM Hepes); immunoblotting.
Test [2] deals with GST-HIP-55AA (S269A/T291A-mutated HIP-55) (human) (UniProt Q9UJU6). The test is described as above.
The target in test [3] is Flag-MAP4K1 (UniProt Q92918). Description: co-IP; Flag pull-down: lysates of transfected cells on anti-Flag M2 affinity gel, 4 °C overnight, three washes with lysis buffer; cells stimulated with EGF 100 ng/ml for 10 min.

“Flag-MAP4K1 (from UniProt Q92918 1-833) (enzyme)”: the binding entry in test [1] and in test [2] was “binds” each time.

Consider GST-HIP-55 (from UniProt Q9UJU6 1-430), for which the binding entry in test [3] is reported as “binds”.
